Screen size: about 420,000 compounds; about 64,000 (15%) were called active. The inconclusive results got no clear call from the source; some entries with a clear call stand among them for comparison. Calls follow the shape of the dose curve; as a rule, active = well fitted inhibition curve with a large enough effect; inconclusive = small, poorly fitted or top-dose-only effect; inactive = flat fitted curve, though single readings scatter. Potencies of inconclusive entries are left out as doubtful fits.
Assay: qHTS for Inhibitors of human tyrosyl-DNA phosphodiesterase 1 (TDP1): qHTS in cells in absence of CPT; also: nearly all actives have a fitted effect of over 55% in size
Conditions: DT40 Tdp1-/- hTDP1 cells, no CPT, ATP luminescence, 48 h; series mostly up to 46.2 µM
Summary of the method: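 Growth of hTDP1-complemented DT40 Tdp1-knockout cells is measured by ATP luminescence after at least 48 hr compound exposure at 37 °C, with DMSO substituting for the 20 nM CPT used in the parallel screen.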
Potency is read from the fitted curve at half-maximal effect; tags tell the direction and shape of the fitted curve.

Q: Which Potency does the source give for `Cc1cc(=O)[nH]c(/N=C(\N)Nc2ccc(Oc3ccccc3)cc2)n1` here?
A: inconclusive [inhibitor, single point]

Q: Which Potency does the source give for `COCCSc1nnc(NC(=O)c2ccc([N+](=O)[O-])cc2)s1` here?
A: inactive

Q: For `C=C(C)[C@@H]1CC=C(CN2CCC(N3CCC(C(=O)N4CCCC4)CC3)CC2)CC1`, which Potency is on record?
A: active: 20.6 µM

Q: Which Potency does the source give for `Cc1cc(SC#N)cc(C)c1NC(=O)CCl` here?
A: active: 2.59 µM

Q: For `CCn1c(N)c(C(=O)Nc2ccccc2C(=O)OC)sc1=S`, which Potency is on record?
A: active: 16.4 µM

Q: For `CCOc1ccc(/C=C(\C#N)C(=O)c2c(C)[nH]c3ccccc23)cc1OC`, which Potency is on record?
A: inconclusive [inhibitor, single point]

Q: With `CN(CC(=O)Nc1cccc(F)c1)C(=O)c1cn(-c2ccccc2)nc1-c1ccccc1` as the compound, how does the Potency read?
A: inconclusive [inhibitor, single point]

Q: With `Cc1cc(=S)nc(-c2ccccn2)[nH]1` as the compound, how does the Potency read?
A: active: 4.61 µM

Q: With `CN(c1ccccn1)c1ncnc2[nH]ncc12` as the compound, how does the Potency read?
A: inactive

Q: With `Cc1cc(C(=O)NNC(=S)NCc2ccccc2)cs1` as the compound, how does the Potency read?
A: inconclusive [inhibitor, partial curve, poor fit]

Q: Which Potency does the source give for `Cc1ccc(S(=O)(=O)N(CC(=O)N2CCc3ccccc3C2)c2cccc(Cl)c2)cc1` here?
A: active: 20.6 µM

Q: For `Cc1cccc(C(=O)Nc2ccc3c(c2)ncn3C)c1`, which Potency is on record?
A: inactive

Q: For `COc1ccc(NC(C)=O)cc1NC(=O)c1cccc(S(=O)(=O)N2CCc3ccccc32)c1`, which Potency is on record?
A: inactive

Q: For `Cc1cccc(OCC(=O)NCc2cc(C)nc3ccccc23)c1`, which Potency is on record?
A: inconclusive [inhibitor, partial curve]

Q: With `COc1ccc(C(=O)OCc2c(-c3ccccc3)ncc3ccccc23)cc1` as the compound, how does the Potency read?
A: inconclusive [inhibitor, single point]

Q: With `COC(=O)c1ccccc1NC(=O)CN(C)S(=O)(=O)c1cc(C)ccc1OC` as the compound, how does the Potency read?
A: inconclusive [inhibitor, partial curve]

Q: Which Potency does the source give for `CCCCNC(=O)O[C@@H]1C[C@H]2CCC(=O)N3CC[C@@H](C1)[C@@H]23` here?
A: inactive

Q: For `CCCn1cnc2c(=S)nc(N)[nH]c21`, which Potency is on record?
A: inactive

Q: For `O=C(CN1CCSCC1)N/N=C/c1ccc(F)cc1F`, which Potency is on record?
A: inactive

Q: For `COc1ccc(C2NCCc3c2[nH]c2ccccc32)cc1CSc1nc2ccccc2s1` (stereo not given), which Potency is on record?
A: inconclusive [inhibitor, single point]

Q: For `O=C(Nc1ccc2c(c1)OCO2)c1cc(C2CCCCN2C(=O)CCCc2ccccc2)on1` (stereo not given), which Potency is on record?
A: inconclusive [inhibitor, single point]

Q: With `COc1ccc(Nc2ncnc3c2cnn3-c2cccc(C)c2)cc1OC` as the compound, how does the Potency read?
A: inactive

Q: With `Cc1ccc(NC(=O)c2cnc(N3CCCC3)nc2C)cc1F` as the compound, how does the Potency read?
A: inconclusive [inhibitor, single point]

Q: For `N#C/C(=C\c1ccccc1C(=O)O)c1nc2ccccc2[nH]1`, which Potency is on record?
A: inactive

Q: Which Potency does the source give for `Cc1cccc([C@@H]2[C@@H]3C(=O)N(Cc4ccccc4)C(=O)[C@@H]3[C@]3(Cc4ccc(Cl)cc4)C(=O)N(c4ccc(Br)cc4)C(=O)N23)c1` here?
A: inconclusive [inhibitor, partial curve]

Q: For `COc1cccc(C(=O)Nc2c(C(=O)Nc3ccc(F)cc3)oc3ccccc23)c1OC`, which Potency is on record?
A: inconclusive [inhibitor, single point]

Q: Which Potency does the source give for `COc1ccc(NC(=O)COc2cccc(C(F)(F)F)c2)cn1` here?
A: inconclusive [inhibitor, partial curve]

Q: For `CCCCN(C(=O)C1CCC(CNS(=O)(=O)c2cccc3nsnc23)CC1)c1ccccc1` (stereo not given), which Potency is on record?
A: active: 20.6 µM

Q: Which Potency does the source give for `N#Cc1ccccc1NC(=O)CSc1nnc(-c2ccc(F)cc2)n1-c1ccccc1` here?
A: inconclusive [inhibitor, single point]

Q: With `O=C(Nc1cccc(Br)c1)c1ccc2c(c1)SC1=NS(=O)(=O)CCN12` as the compound, how does the Potency read?
A: active: 29.1 µM

Q: For `O=C(Nc1ccc(F)c(Cl)c1)c1cc(C2CCCCN2C(=O)c2ccccc2)on1` (stereo not given), which Potency is on record?
A: active: 6.51 µM

Q: With `CN(c1ccccc1)c1nc(N)c([N+](=O)[O-])c(N2CCCC2)n1` as the compound, how does the Potency read?
A: inconclusive [inhibitor, single point]

Q: Which Potency does the source give for `CC(=O)OC1CC[C@@]2(C)C(CCC3C2CC(=O)[C@@]2(C)C3CC3CC(C)=CC(=O)C32)C1` (stereo not given in full) here?
A: active: 14.6 µM

Q: Which Potency does the source give for `O=C(/C=C/c1ccco1)N(Cc1cccc(Br)c1)C1CCS(=O)(=O)C1` (stereo not given) here?
A: inconclusive [inhibitor, single point]

Q: With `O=S(=O)(Nc1cccc2c1CCCC2)c1ccc(Cl)cc1` as the compound, how does the Potency read?
A: inconclusive [inhibitor, single point]

Q: For `C/C(=N\Nc1nc(C)cc(-c2ccccc2)n1)c1cccc(N)c1`, which Potency is on record?
A: active: 20.6 µM

Q: Which Potency does the source give for `O[C@H]1C[C@H](c2ccc(Cl)cc2)N(Cc2cccs2)C[C@@H]1n1cc(-c2ccc(F)cc2)nn1` here?
A: inconclusive [inhibitor, single point]

Q: With `CC(C)(C)NCCOCCOc1ccc(Cl)cc1C(C)(C)C` as the compound, how does the Potency read?
A: inconclusive [inhibitor, single point]

Q: With `O=C(NCCc1ccccc1)N1c2ccccc2Sc2ccccc21` as the compound, how does the Potency read?
A: active: 16.4 µM

Q: Which Potency does the source give for `Cc1ccccc1-c1cnc(C(O)c2ccc(F)cc2)[nH]1` (stereo not given) here?
A: inconclusive [inhibitor, single point]

Q: Which Potency does the source give for `CCO[C@H]1OC(C(=O)NC2CC2)=C[C@@H](C2CC2)[C@@H]1CCCO` here?
A: inactive

Q: Which Potency does the source give for `O=C(Nc1ccc(Cl)cn1)C1CCCN1S(=O)(=O)c1cccc2ccccc12` (stereo not given) here?
A: inconclusive [inhibitor, single point]

Q: With `COc1ccccc1NC(=O)Cn1cnc2sc(C(=O)Nc3cc(OC)c(OC)c(OC)c3)c(C)c2c1=O` as the compound, how does the Potency read?
A: inconclusive [inhibitor, single point]

Q: With `Cc1ccccc1CSc1ncc(Cl)c(C(=O)Nc2nc3ccc(F)cc3s2)n1` as the compound, how does the Potency read?
A: inconclusive [inhibitor, partial curve, poor fit]

Q: Which Potency does the source give for `C[C@@H]1C(c2ccccc2)=NN(c2ccccc2)[C@H]1C(=O)N1CCOC1=O` here?
A: inconclusive [inhibitor, single point]

From PubChem BioAssay AID686978 (National Center for Advancing Translational Sciences (NCATS), 2013)
